Source: the supplement of paper PMC9151546
Most values come without repeats; read them as rough.

Legend:
CHO-K1 [1] = test: relative survival (nuclei to bead ratio vs DMSO control) (% of vehicle control); higher = more surviving cells
Procedure: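 Flow-cytometric in vitro micronucleus assay (Litron MicroFlow) in CHO-K1 cells in 96-well plates, 19 concentrations (4.5-200 µM, n=1 per concentration). Without S9, cells were exposed for 24 h and sampled at 48 h. With Aroclor 1254-induced rat liver S9, cells were exposed for 3-4 h and sampled at 27-28 h. Read-outs are %MN and %hypodiploid nuclei relative to nucleated events, and relative survival as the nuclei-to-bead ratio versus the 1% DMSO vehicle control (x100).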

CHO-K1 [2] = test: micronucleus frequency (% of nucleated events); higher = more micronuclei (genotoxic)
CHO-K1 [3] = test: hypodiploid nuclei frequency (% of nucleated events); higher = more hypodiploid events (aneugenic)
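For hypodiploid nuclei frequency (% of nucleated events) in this document: hypodiploid nuclei gated on a flow cytometer with 488 nm excitation after SYTOX Green staining, cultures at 37 °C, positive controls vinblastine without S9 and cyclophosphamide with S9.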
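For micronucleus frequency (% of nucleated events) in this document: cells lysed with nuclei stained by SYTOX Green, then micronucleus-gated events counted against nucleated events by flow cytometry with 488 nm excitation.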
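For relative survival (nuclei to bead ratio vs DMSO control) in this document: Lysed-cell nuclei stained with SYTOX Green and counted against counting beads by flow cytometry at 488 nm excitation, with vinblastine (no S9) and cyclophosphamide (plus S9) as positive controls.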

Oc1ccc2ccccc2c1N=Nc1ccccc1 [C.I. Solvent Yellow 14]
Settings | hypodiploid nuclei frequency, CHO-K1 [3] [%] | micronucleus frequency, CHO-K1 [2] [%] | relative survival, CHO-K1 [1]
concentration: 4.5 (µM), S9 metabolic activation: with S9, exposure time: 3-4 hours | 0.3 | 1.34 | 110
concentration: 4.5 (µM), S9 metabolic activation: without S9, exposure time: 24 hours | 1.66 | 1.98 | 112
concentration: 5.63 (µM), S9 metabolic activation: with S9, exposure time: 3-4 hours | 0.2 | 1.96 | 111
concentration: 5.63 (µM), S9 metabolic activation: without S9, exposure time: 24 hours | 2.36 | 2.28 | 113
concentration: 7.04 (µM), S9 metabolic activation: with S9, exposure time: 3-4 hours | 0.36 | 1.58 | 101
concentration: 7.04 (µM), S9 metabolic activation: without S9, exposure time: 24 hours | 3.26 | 2.38 | 122
concentration: 8.8 (µM), S9 metabolic activation: with S9, exposure time: 3-4 hours | 0.36 | 1.78 | 113
concentration: 8.8 (µM), S9 metabolic activation: without S9, exposure time: 24 hours | 1.88 | 1.78 | 121
concentration: 11 (µM), S9 metabolic activation: with S9, exposure time: 3-4 hours | 0.26 | 1.52 | 99.7
concentration: 11 (µM), S9 metabolic activation: without S9, exposure time: 24 hours | 2.1 | 1.82 | 111
concentration: 13.7 (µM), S9 metabolic activation: with S9, exposure time: 3-4 hours | 0.26 | 1.98 | 109
concentration: 13.7 (µM), S9 metabolic activation: without S9, exposure time: 24 hours | 1.7 | 2.14 | 107
concentration: 17.2 (µM), S9 metabolic activation: with S9, exposure time: 3-4 hours | 0.28 | 2.48 | 101
concentration: 17.2 (µM), S9 metabolic activation: without S9, exposure time: 24 hours | 3.52 | 2.28 | 96.5
concentration: 21.5 (µM), S9 metabolic activation: with S9, exposure time: 3-4 hours | 0.24 | 3.04 | 103
concentration: 21.5 (µM), S9 metabolic activation: without S9, exposure time: 24 hours | 4.66 | 1.7 | 112
concentration: 26.8 (µM), S9 metabolic activation: with S9, exposure time: 3-4 hours | 0.32 | 2.8 | 121
concentration: 26.8 (µM), S9 metabolic activation: without S9, exposure time: 24 hours | – | 3.76 | 47.3
concentration: 33.6 (µM), S9 metabolic activation: with S9, exposure time: 3-4 hours | 0.3 | 2.54 | 99.2
concentration: 33.6 (µM), S9 metabolic activation: without S9, exposure time: 24 hours | – | 4.52 | 44.6
concentration: 41.9 (µM), S9 metabolic activation: with S9, exposure time: 3-4 hours | 0.62 | 3.14 | 103
concentration: 41.9 (µM), S9 metabolic activation: without S9, exposure time: 24 hours | – | – | 30.2
concentration: 52.4 (µM), S9 metabolic activation: with S9, exposure time: 3-4 hours | 0.26 | 2.68 | 92.4
concentration: 52.4 (µM), S9 metabolic activation: without S9, exposure time: 24 hours | – | – | 29.3
concentration: 65.5 (µM), S9 metabolic activation: with S9, exposure time: 3-4 hours | 0.2 | 1.78 | 115
concentration: 65.5 (µM), S9 metabolic activation: without S9, exposure time: 24 hours | – | – | 35.1
concentration: 81.9 (µM), S9 metabolic activation: with S9, exposure time: 3-4 hours | 0.4 | 2.86 | 94.4
concentration: 81.9 (µM), S9 metabolic activation: without S9, exposure time: 24 hours | – | – | 37.9
concentration: 102 (µM), S9 metabolic activation: with S9, exposure time: 3-4 hours | 0.84 | 2.2 | 74.6
concentration: 102 (µM), S9 metabolic activation: without S9, exposure time: 24 hours | – | – | 33.9
concentration: 128 (µM), S9 metabolic activation: with S9, exposure time: 3-4 hours | 0.6 | 2.3 | 85.9
concentration: 128 (µM), S9 metabolic activation: without S9, exposure time: 24 hours | – | – | 25.2
concentration: 160 (µM), S9 metabolic activation: with S9, exposure time: 3-4 hours | 2.66 | 2.38 | 75.9
concentration: 160 (µM), S9 metabolic activation: without S9, exposure time: 24 hours | – | – | 29.3
concentration: 200 (µM), S9 metabolic activation: with S9, exposure time: 3-4 hours | 3.9 | 2.28 | 77.3
concentration: 200 (µM), S9 metabolic activation: without S9, exposure time: 24 hours | – | – | 24.2

O=C(O)C(F)(F)C(F)(F)C(F)(F)C(F)(F)C(F)(F)F [PFHxA]
Settings | hypodiploid nuclei frequency, CHO-K1 [3] [%] | micronucleus frequency, CHO-K1 [2] [%] | relative survival, CHO-K1 [1]
concentration: 4.5 (µM), S9 metabolic activation: with S9, exposure time: 3-4 hours | 0.38 | 0.78 | 94.9
concentration: 4.5 (µM), S9 metabolic activation: without S9, exposure time: 24 hours | 1.04 | 1.38 | 100
concentration: 5.63 (µM), S9 metabolic activation: with S9, exposure time: 3-4 hours | 0.44 | 1.22 | 87.4
concentration: 5.63 (µM), S9 metabolic activation: without S9, exposure time: 24 hours | 0.88 | 1.12 | 96.3
concentration: 7.04 (µM), S9 metabolic activation: with S9, exposure time: 3-4 hours | 0.22 | 1.1 | 74.4
concentration: 7.04 (µM), S9 metabolic activation: without S9, exposure time: 24 hours | 1.38 | 1.84 | 102
concentration: 8.8 (µM), S9 metabolic activation: with S9, exposure time: 3-4 hours | 0.28 | 1.7 | 90.6
concentration: 8.8 (µM), S9 metabolic activation: without S9, exposure time: 24 hours | 1.12 | 0.82 | 85.3
concentration: 11 (µM), S9 metabolic activation: with S9, exposure time: 3-4 hours | 0.24 | 1.42 | 92.2
concentration: 11 (µM), S9 metabolic activation: without S9, exposure time: 24 hours | 0.82 | 1.26 | 88.2
concentration: 13.7 (µM), S9 metabolic activation: with S9, exposure time: 3-4 hours | 0.32 | 1 | 85.5
concentration: 13.7 (µM), S9 metabolic activation: without S9, exposure time: 24 hours | 1.3 | 1.48 | 93.5
concentration: 17.2 (µM), S9 metabolic activation: with S9, exposure time: 3-4 hours | 0.3 | 1.24 | 104
concentration: 17.2 (µM), S9 metabolic activation: without S9, exposure time: 24 hours | 0.8 | 1.2 | 98.1
concentration: 21.5 (µM), S9 metabolic activation: with S9, exposure time: 3-4 hours | 0.38 | 0.86 | 99.3
concentration: 21.5 (µM), S9 metabolic activation: without S9, exposure time: 24 hours | 0.74 | 1.24 | 95.2
concentration: 26.8 (µM), S9 metabolic activation: with S9, exposure time: 3-4 hours | 0.36 | 1.08 | 131
concentration: 26.8 (µM), S9 metabolic activation: without S9, exposure time: 24 hours | 0.84 | 1.44 | 89.7
concentration: 33.6 (µM), S9 metabolic activation: with S9, exposure time: 3-4 hours | 0.34 | 1.16 | 137
concentration: 33.6 (µM), S9 metabolic activation: without S9, exposure time: 24 hours | 0.96 | 1.32 | 105
concentration: 41.9 (µM), S9 metabolic activation: with S9, exposure time: 3-4 hours | 0.38 | 0.9 | 107
concentration: 41.9 (µM), S9 metabolic activation: without S9, exposure time: 24 hours | 1.28 | 1.88 | 110
concentration: 52.4 (µM), S9 metabolic activation: with S9, exposure time: 3-4 hours | 0.28 | 1.14 | 119
concentration: 52.4 (µM), S9 metabolic activation: without S9, exposure time: 24 hours | 1.22 | 1.72 | 87.7
concentration: 65.5 (µM), S9 metabolic activation: with S9, exposure time: 3-4 hours | 0.38 | 1.06 | 120
concentration: 65.5 (µM), S9 metabolic activation: without S9, exposure time: 24 hours | 0.94 | 1.84 | 71
concentration: 81.9 (µM), S9 metabolic activation: with S9, exposure time: 3-4 hours | 0.44 | 1.4 | 96
concentration: 81.9 (µM), S9 metabolic activation: without S9, exposure time: 24 hours | 1.18 | 1.6 | 72.7
concentration: 102 (µM), S9 metabolic activation: with S9, exposure time: 3-4 hours | 0.42 | 1.42 | 112
concentration: 102 (µM), S9 metabolic activation: without S9, exposure time: 24 hours | 1.38 | 2.12 | 84.9
concentration: 128 (µM), S9 metabolic activation: with S9, exposure time: 3-4 hours | 0.26 | 1.06 | 101
concentration: 128 (µM), S9 metabolic activation: without S9, exposure time: 24 hours | 1.22 | 1.42 | 87.7
concentration: 160 (µM), S9 metabolic activation: with S9, exposure time: 3-4 hours | 0.38 | 1.56 | 105
concentration: 160 (µM), S9 metabolic activation: without S9, exposure time: 24 hours | 1.4 | 2.06 | 100
concentration: 200 (µM), S9 metabolic activation: with S9, exposure time: 3-4 hours | 0.28 | 1.32 | 107
concentration: 200 (µM), S9 metabolic activation: without S9, exposure time: 24 hours | 1.3 | 2.4 | 88.2
